The list shows a part of the results. The energies were worked out here from pooled read counts, against the library average; single values are noisy.

This test has as its target T1, Pho4 (S. cerevisiae) (UniProt P07270).
T1 sequence: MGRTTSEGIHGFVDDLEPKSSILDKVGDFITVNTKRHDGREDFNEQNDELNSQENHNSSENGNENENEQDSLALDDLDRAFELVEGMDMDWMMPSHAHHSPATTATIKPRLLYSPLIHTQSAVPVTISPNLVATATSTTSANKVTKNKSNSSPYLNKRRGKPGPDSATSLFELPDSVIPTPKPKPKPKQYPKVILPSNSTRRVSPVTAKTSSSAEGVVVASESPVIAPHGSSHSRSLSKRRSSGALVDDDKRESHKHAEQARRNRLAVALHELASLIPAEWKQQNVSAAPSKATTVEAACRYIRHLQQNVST
Put plainly: relative binding free energy (BET-seq); higher = weaker binding. The following applies: reference: library average.
Turning to ATATTCACGTGGGGCA, the “relative binding free energy” value amounted to 0.1 kcal/mol. For TGGTGCACGTGGCGAT, the “relative binding free energy” value was 0.02 kcal/mol. In the case of TCGCGCACGTGGGTAG, the “relative binding free energy” value was -0.28 kcal/mol.

Turning to AGTTACACGTGATTGA, the “relative binding free energy” value turned out to be 0.24 kcal/mol.

Turning to AATTGCACGTGGTCGT, the “relative binding free energy” value was -0.16 kcal/mol. Take AGCTGCACGTGTTTTA: the “relative binding free energy” value is -0.03 kcal/mol. On to GGGGACACGTGGGATA, for which the “relative binding free energy” value is -0.09 kcal/mol. For ATGTGCACGTGCTGGA, the “relative binding free energy” value worked out at 0.01 kcal/mol. In the case of ATTGACACGTGCATGT, the “relative binding free energy” value is -0.09 kcal/mol. Under AATGTCACGTGGAGTC stands 0.11 kcal/mol; under TATATCACGTGAAAGT, 0.29 kcal/mol. With CTTGACACGTGGTAGA, the “relative binding free energy” value is -0.05 kcal/mol.

Regarding AAAAGCACGTGTGGGC, the “relative binding free energy” value is 0.08 kcal/mol. Under TTATGCACGTGGAGAA stands 0.08 kcal/mol; under AGTGACACGTGAGATT, 0.22 kcal/mol; under TAGTACACGTGAATGG, 0.3 kcal/mol. As to AGTTGCACGTGCAGAG, the “relative binding free energy” value is 0.06 kcal/mol. On to GTGTCCACGTGCTGTT, for which the “relative binding free energy” value is 0.01 kcal/mol. Regarding TGGGACACGTGGCATG, the “relative binding free energy” value is -0.13 kcal/mol. In the case of GGTTCCACGTGGGGTG it was 0.01 kcal/mol; in that of TACATCACGTGGGTTG, -0.1 kcal/mol. CAATACACGTGGGGTG: the “relative binding free energy” value is -0.11 kcal/mol.

For GTATCCACGTGAGGGT, the “relative binding free energy” value was determined as 0.25 kcal/mol. Regarding GTGCGCACGTGGTAAT, the “relative binding free energy” value was -0.17 kcal/mol. Take AGGGTCACGTGTAATC: the “relative binding free energy” value came to 0.28 kcal/mol. AAAGTCACGTGGTGGG: the “relative binding free energy” value was found to be 0.07 kcal/mol.

On to GTTAGCACGTGTGGTA, for which the “relative binding free energy” value is -0.03 kcal/mol. Consider GGAAACACGTGCTGGG, for which the “relative binding free energy” value is 0.06 kcal/mol. Under TAGTTCACGTGGCTGT stands 0.24 kcal/mol; under TGTCACACGTGTGTAG, -0.02 kcal/mol; under GTCTTCACGTGGATGA, 0.33 kcal/mol. In the case of GGATGCACGTGTGTCA, the “relative binding free energy” value came to 0.02 kcal/mol. For TAGGGCACGTGGATGT, the “relative binding free energy” value is -0.13 kcal/mol.

Consider TGTTGCACGTGCAGTA, for which the “relative binding free energy” value was -0.13 kcal/mol. In the case of TTATGCACGTGTTATG it was 0.05 kcal/mol; in that of TGTACCACGTGGTTGC, 0.09 kcal/mol. Consider TATTGCACGTGTTACT, for which the “relative binding free energy” value is 0.03 kcal/mol. As for GAGGACACGTGGAAGT, the “relative binding free energy” value is 0.24 kcal/mol. Turning to AGCTTCACGTGTAGTT, the “relative binding free energy” value turned out to be 0.2 kcal/mol. Take TTGGCCACGTGAGGTG: the “relative binding free energy” value stood at 0.09 kcal/mol. Turning to GGATTCACGTGCGGTT, the “relative binding free energy” value was 0.37 kcal/mol. Turning to GTCAGCACGTGGTGGC, the “relative binding free energy” value is -0.13 kcal/mol.

Turning to AGTTACACGTGTGTGA, the “relative binding free energy” value is 0.12 kcal/mol. Under TTGTACACGTGTCTTA stands -0.02 kcal/mol; under CGTGTCACGTGTGTTC, 0.12 kcal/mol. In the case of AGTTGCACGTGTGCGA, the “relative binding free energy” value is -0.1 kcal/mol.

As for CTGAGCACGTGGTAAT, the “relative binding free energy” value is -0.02 kcal/mol. As for AATCTCACGTGTTTTA, the “relative binding free energy” value is 0.17 kcal/mol.

Consider GGGAACACGTGTCGTG, for which the “relative binding free energy” value was -0.04 kcal/mol.

For TTGTTCACGTGCTGTT, the “relative binding free energy” value stood at 0.22 kcal/mol. Turning to TAGTTCACGTGCGGAG, the “relative binding free energy” value worked out at 0.19 kcal/mol. In the case of AAGAGCACGTGATGTT, the “relative binding free energy” value was -0.06 kcal/mol. Take GTGCTCACGTGGGCGC: the “relative binding free energy” value came out at 0.18 kcal/mol. Consider TGCTTCACGTGTAATT, for which the “relative binding free energy” value came out at 0.38 kcal/mol. In the case of CGCGGCACGTGTAGGT, the “relative binding free energy” value is -0.05 kcal/mol.

Consider AAGGGCACGTGGTTTT, for which the “relative binding free energy” value was -0.1 kcal/mol.

In the case of GGATACACGTGTTTTT, the “relative binding free energy” value was found to be 0.24 kcal/mol. Take CTGGTCACGTGGCGGT: the “relative binding free energy” value is -0.03 kcal/mol. Take AAATTCACGTGTGTTG: the “relative binding free energy” value was 0.29 kcal/mol. In the case of TTAGGCACGTGAGAGG it was 0.11 kcal/mol. For the sequence ATGACCACGTGGGTGG, the “relative binding free energy” value was -0.3 kcal/mol. As for CGGGACACGTGAGTTA, the “relative binding free energy” value was determined as 0.33 kcal/mol. In the case of CATATCACGTGTAAGG it was 0.3 kcal/mol; in that of TTCGTCACGTGTCATG, 0.16 kcal/mol. Turning to GTAGGCACGTGCGTTT, the “relative binding free energy” value was -0.08 kcal/mol. As to GTTTACACGTGGTCTG, the “relative binding free energy” value turned out to be 0 kcal/mol. In the case of TGAAGCACGTGCTTGT, the “relative binding free energy” value is -0.05 kcal/mol. As to GCGGACACGTGGGGCG, the “relative binding free energy” value was 0.02 kcal/mol.

For the sequence GATGGCACGTGTTGCT, the “relative binding free energy” value is -0.01 kcal/mol. In the case of TTTAGCACGTGAAATT it was 0.2 kcal/mol.

Take GGGTCCACGTGGTTTT: the “relative binding free energy” value is 0.14 kcal/mol. As to GGGGTCACGTGTGGTT, the “relative binding free energy” value worked out at 0.24 kcal/mol. As to TTCAGCACGTGGGTTT, the “relative binding free energy” value was -0.16 kcal/mol.

AAAGTCACGTGGCGGA: the “relative binding free energy” value is 0.08 kcal/mol. In the case of GAGATCACGTGCAGGT it was 0.31 kcal/mol; in that of TGTGGCACGTGTGCAG, -0.11 kcal/mol. On to GGGCCCACGTGGGGGA, for which the “relative binding free energy” value is -0.22 kcal/mol. Take GTGGGCACGTGGCATG: the “relative binding free energy” value was -0.2 kcal/mol. In the case of TACTACACGTGGTTGT it was 0.05 kcal/mol. Turning to TTTGACACGTGCAATT, the “relative binding free energy” value is 0.21 kcal/mol. In the case of GGGAGCACGTGTAATT it was 0.09 kcal/mol; in that of AGTAACACGTGGGAGG, -0.14 kcal/mol. Take TGAGCCACGTGTTGTA: the “relative binding free energy” value was -0.08 kcal/mol. With CTAGGCACGTGTTCGG, the “relative binding free energy” value was -0.13 kcal/mol. In the case of GATCTCACGTGTTGTA it was 0.24 kcal/mol; in that of AATATCACGTGGGTTG, 0 kcal/mol. Turning to TAGTGCACGTGGTTGC, the “relative binding free energy” value stood at 0 kcal/mol.

On to TGAATCACGTGTGCGT, for which the “relative binding free energy” value is 0.11 kcal/mol. In the case of GTATTCACGTGGGGGG it was 0.13 kcal/mol. For the sequence GGAGTCACGTGACAGG, the “relative binding free energy” value came out at 0.15 kcal/mol. For AGCTTCACGTGTCGGA, the “relative binding free energy” value is 0.37 kcal/mol.

As for GTGCTCACGTGGGATT, the “relative binding free energy” value is 0.13 kcal/mol. In the case of TAGTTCACGTGTATTG it was 0.22 kcal/mol; in that of GGGGGCACGTGAGGGG, 0.16 kcal/mol; in that of AATATCACGTGGCTGT, -0.01 kcal/mol.

Regarding AATTACACGTGTGAGT, the “relative binding free energy” value amounted to 0.17 kcal/mol. Take GTAAGCACGTGGTGGC: the “relative binding free energy” value is -0.09 kcal/mol. With GGCGTCACGTGTGAGG, the “relative binding free energy” value amounted to 0.16 kcal/mol. In the case of ATGTACACGTGTTAAA it was 0.13 kcal/mol. For the sequence GTATGCACGTGGGTGA, the “relative binding free energy” value was -0.1 kcal/mol. For GTCGTCACGTGAGTGC, the “relative binding free energy” value was 0.29 kcal/mol. For TGGGGCACGTGGGTAA, the “relative binding free energy” value was -0.13 kcal/mol. Under GTCTGCACGTGGTTTA stands -0.01 kcal/mol.

Regarding GGAACCACGTGGGTTT, the “relative binding free energy” value was -0.01 kcal/mol. As to TAGGTCACGTGTGAGC, the “relative binding free energy” value was 0.23 kcal/mol.

For GGGGTCACGTGCCACG, the “relative binding free energy” value was found to be 0.15 kcal/mol. As for ATGGACACGTGTCTGT, the “relative binding free energy” value amounted to 0.01 kcal/mol. Regarding GCTCACACGTGTGGGG, the “relative binding free energy” value is 0.17 kcal/mol. Under TGGGACACGTGAGTGT stands 0.19 kcal/mol; under GGTAGCACGTGCTTGG, -0.02 kcal/mol; under GAGGTCACGTGTAGGG, 0.08 kcal/mol. TAGCTCACGTGGTGCG: the “relative binding free energy” value was 0.13 kcal/mol.

For TCGGACACGTGGAGTG, the “relative binding free energy” value came out at 0 kcal/mol. Consider AATGGCACGTGCTGAA, for which the “relative binding free energy” value was 0.06 kcal/mol. Under TTGGCCACGTGATCGT stands 0.08 kcal/mol; under TAGATCACGTGGGCTG, -0.05 kcal/mol. AGGGTCACGTGTGTGT: the “relative binding free energy” value came to 0.13 kcal/mol.

For the sequence GCGGGCACGTGTGTCG, the “relative binding free energy” value is -0.02 kcal/mol.

On to TGTGGCACGTGGGTTG, for which the “relative binding free energy” value is -0.13 kcal/mol. As for ATGTGCACGTGATGTC, the “relative binding free energy” value is 0.1 kcal/mol.

Regarding TTTTCCACGTGGTTCG, the “relative binding free energy” value came out at 0.08 kcal/mol.

ATGTTCACGTGAACTG: the “relative binding free energy” value worked out at 0.42 kcal/mol. For GCGGTCACGTGGAAGG, the “relative binding free energy” value worked out at 0.32 kcal/mol.

Turning to TTATGCACGTGGGCGC, the “relative binding free energy” value was -0.01 kcal/mol.

With GTGTACACGTGGCATG, the “relative binding free energy” value is -0.05 kcal/mol.

In the case of GGAGGCACGTGAGGTG, the “relative binding free energy” value was 0.21 kcal/mol. Under ATGTCCACGTGAATGG stands 0.26 kcal/mol; under GTGGGCACGTGTTTAC, -0.02 kcal/mol; under GGTGGCACGTGTGAGG, 0.05 kcal/mol. In the case of CATTTCACGTGTAATT, the “relative binding free energy” value came out at 0.3 kcal/mol.

Take TTGGCCACGTGTTTAA: the “relative binding free energy” value is -0.07 kcal/mol. In the case of GACGACACGTGTGGAG it was 0.44 kcal/mol; in that of TTTAACACGTGAGCTG, 0.21 kcal/mol; in that of TTTGTCACGTGCTTAT, -0.05 kcal/mol. As to AGTTTCACGTGTGCCT, the “relative binding free energy” value was found to be 0.38 kcal/mol.

ATATACACGTGTAGTA: the “relative binding free energy” value was 0.08 kcal/mol. Turning to GGCTTCACGTGAGATT, the “relative binding free energy” value was determined as 0.6 kcal/mol. Regarding CATATCACGTGCGGGG, the “relative binding free energy” value was determined as 0.07 kcal/mol. GTAGGCACGTGTTGAG: the “relative binding free energy” value is -0.03 kcal/mol. In the case of AAGGGCACGTGGGTTA it was -0.24 kcal/mol. On to TTTAACACGTGTCTTG, for which the “relative binding free energy” value is -0.03 kcal/mol. Consider TTAGTCACGTGGGTCG, for which the “relative binding free energy” value is -0.08 kcal/mol.

Consider TAAAGCACGTGGCAGT, for which the “relative binding free energy” value is -0.15 kcal/mol. Consider TTGTCCACGTGCGAGG, for which the “relative binding free energy” value amounted to 0.06 kcal/mol. In the case of GTAGACACGTGTGGCA it was 0.03 kcal/mol.

GGTTTCACGTGGGGCA: the “relative binding free energy” value was 0.16 kcal/mol.

Values taken from the BET-seq Pho4 binding data (Le et al. 2018).
